Structures are written as SMILES. Out of some 150,000 compounds screened, about 540 (0.36%) showed an effect of 50% or more. Some of the results follow.

43 molecules from ChEMBL document CHEMBL4888484, “Replenishing the malaria drug discovery pipeline: Screening and hit evaluation of the MMV Hit Generation Library 1 (HGL1) against asexual blood stage Plasmodium falciparum ,using a nano luciferase reporter read-out” (2022) can be followed below.

The test system of this assay is Plasmodium falciparum. Kind of assay: Primary screen in NF54 nanoGlo assay, in single point, at 2uM, 72h; a lower Z score goes with more inhibition. It counts as functional, Erythrocyte. To be noted: timepoint 72 hour.
Turning to `Cc1nccn1C[C@H]1CCCN(C(=O)Cn2cccn2)C1`, the % Inhibition – broadly, the drop in the measured response relative to a control, in per cent – is given as -3% and the Z score is given as 0.6.

For `CC(C)(C)c1ccc(Cn2c(C(=O)Nc3ccccc3)cc3cc(NC(=O)c4ccco4)ccc32)cc1`, the “% Inhibition” value was 3% and the Z score is recorded as -0.38.

Consider `C[C@H](C(=O)O)C(=O)NCc1cc(Br)ccc1Br`, for which the “% Inhibition” value was -10% and the Z score is on record as 1.53.

As to `Cc1cncc(CCNC(=O)NC2CC(N3CCC(C(F)(F)F)CC3)C2)n1` (stereo unspecified), the “% Inhibition” value is recorded as -11% and the Z score is on record as 1.49.

As for `C[C@H](OCCCN=C(N)N1CCOCC1)c1ccccc1`, the “% Inhibition” value is reported as -8% and the Z score was found to be 0.69.

For the molecule `Cc1cnc(C[C@H]2CCN(S(=O)(=O)c3ccccc3)C2)n1CC1CC1`, the “% Inhibition” value is -5% and the Z score is 0.68.

In the case of `OC1(c2nc(-c3cccs3)no2)CCCC1`, the “% Inhibition” value is given as -7% and the Z score stood at 0.68.

Regarding `CN(CCCc1nccn1C)Cc1cc(O)c2cccc(F)c2n1`, the “% Inhibition” value is -11% and the Z score is 1.97.

Take `O=C(Cc1ccc(Br)cc1)N1CCC(N2C(=O)CNC2=O)CC1`: the “% Inhibition” value is given as -5% and the Z score is reported as 0.88.

Consider `CCc1nnsc1C(=O)NCCNc1ccc(C#N)cn1`, for which the “% Inhibition” value is -4% and the Z score is on record as 0.49.

Consider `Cc1cc(Cl)cc(Cl)c1CNC(=O)C[C@H]1CCOC1`, for which the “% Inhibition” value is recorded as 1% and the Z score is given as -0.27.

As for `c1cncc(C(NC2CC3CCC2O3)c2ncc[nH]2)c1` (stereo unspecified), the “% Inhibition” value amounted to 6% and the Z score is -0.91.

As to `O=C1NCCN1C1CN(c2nc(C3CCCC3)ns2)C1`, the “% Inhibition” value was found to be 35% and the Z score was -3.95.

Take `COCCN(CCOC)C(=O)Nc1cc(C)on1`: the “% Inhibition” value is reported as -9% and the Z score is on record as 0.94.

With `CNC(=O)c1cccc(C(=O)N2CCN(CC(F)(F)F)CC2(C)C)c1`, the “% Inhibition” value is -3% and the Z score is given as 0.42.

Turning to `COc1ccccc1-c1nnc([C@H]2CCN(Cc3ccc(Cl)cc3)C2)o1`, the “% Inhibition” value is on record as 29% and the Z score is -3.25.

As for `Nc1nc2c(c(N3CC(N4CCOCC4)C3)n1)CCCC2`, the “% Inhibition” value is -4% and the Z score came out at 0.6.

Consider `CC(C)(C)n1nnc(CC(=O)N2CCCc3ccc(Cl)c(F)c32)n1`, for which the “% Inhibition” value came out at 0% and the Z score turned out to be 0.03.

On to `CN1CCC(O)(CCNC(=O)Cc2ccc(F)c(F)c2F)CC1`, for which the “% Inhibition” value is given as -7% and the Z score was 1.38.

Consider `COc1cccc2c1Oc1c(c(=O)n(-c3ccccc3)n1CC(=O)Nc1cccc(F)c1)C2`, for which the “% Inhibition” value is reported as -19% and the Z score was 1.9.

`COCCn1cncc1CN(C)CCc1cnn(C)c1`: the “% Inhibition” value came to 13% and the Z score is -1.66.

For `Cc1nc(CN(C)CCc2scnc2C)co1`, the “% Inhibition” value is listed as 7% and the Z score is recorded as -0.68.

`c1ccc(-c2csc(N3CCC(n4ccnc4)CC3)n2)cc1`: the “% Inhibition” value was -2% and the Z score worked out at 0.39.

Turning to `CCCn1cc(-c2cc(-c3ccc(O)cc3OC)c(C#N)c(N)n2)c(C)n1`, the “% Inhibition” value was 9% and the Z score is listed as -1.42.

`Cn1cc(N2CCN(Cc3ccc4ccccc4n3)CC2=O)cn1`: the “% Inhibition” value is listed as -12% and the Z score is on record as 1.24.

On to `O=C(c1ccc2c(c1)CCO2)N1C[C@H]2C[C@H](C1)[C@@H]1CCCC(=O)N1C2`, for which the “% Inhibition” value is -4% and the Z score came to 0.39.

As for `Cn1nccc1S(=O)(=O)Nc1scc(C(C)(C)C)c1C#N`, the “% Inhibition” value is 1% and the Z score is -0.16.

With `CNC(=O)[C@@H]1C[C@H](Oc2ccccc2)CN1C1CCN(C(=O)c2nccc3ccccc23)CC1`, the “% Inhibition” value is listed as 1% and the Z score was -0.14.

For the molecule `Cc1ccc(CCNC(=O)C(=O)Nc2cc(F)c(F)c(F)c2)cn1`, the “% Inhibition” value is listed as 4% and the Z score is -0.55.

On to `O=C(CC[C@H]1CCCN(Cc2cc3c(cc2Cl)OCO3)C1)N1CCCC1`, for which the “% Inhibition” value is given as -21% and the Z score turned out to be 1.87.

As to `CCn1ncnc1[C@H](C)Nc1nc(-c2ccncc2)nc2c1CNC2`, the “% Inhibition” value is -1% and the Z score is on record as 0.26.

`Cc1nsc(NC23CCC2CN(C(=O)C2CCCC2)C3)n1` (stereo unspecified): the “% Inhibition” value was determined as 1% and the Z score is -0.07.

As for `Cc1csc(CNc2cccc(NC(=O)N3CCCCCC3)c2)n1`, the “% Inhibition” value was -4% and the Z score was 0.57.

Turning to `Cc1ocnc1C(=O)N(CCOc1ccccc1)C[C@H]1CCCO1`, the “% Inhibition” value was -14% and the Z score came out at 2.37.

Regarding `CC1CCCC(C)N1C(=O)c1sc2ncccc2c1N` (stereo unspecified), the “% Inhibition” value is -17% and the Z score is listed as 1.81.

Turning to `CCOc1ccc(N[C@@H](C)c2cnc(C)nc2C)cn1`, the “% Inhibition” value is listed as -1% and the Z score came to 0.1.

Consider `Cc1nn(-c2ccccc2)c2[nH]c(=O)c3c(c12)CCCC3`, for which the “% Inhibition” value is -7% and the Z score was 0.99.

For the molecule `C[C@@H](c1ccncn1)N(C)CC(=O)NC1CCCCCCC1`, the “% Inhibition” value is listed as -4% and the Z score is 0.74.

Regarding `Cc1ccc(-c2noc(-c3cn(CC(=O)Nc4ccc5c(c4)OCCO5)c4nc(C)ccc4c3=O)n2)cc1`, the “% Inhibition” value is -13% and the Z score amounted to 2.09.

Consider `COC[C@]1(O)CCN(C(=O)c2cn(C)c3ccccc3c2=O)CC1(C)C`, for which the “% Inhibition” value was -9% and the Z score stood at 1.21.

Turning to `CC(C)(C)NC(=O)C(=O)NCCc1ccccc1`, the “% Inhibition” value is on record as -3% and the Z score turned out to be 0.51.

Take `CCNC(=O)N[C@@H]1C=C[C@@H](c2c(C)nn(-c3ccc(C(C)C)cc3)c2C)C1`: the “% Inhibition” value is reported as 9% and the Z score is -1.36.

On to `O=C(O)c1ccc2c(c1)CN(C(=O)Cc1ccc3c(c1)CCCO3)C2`, for which the “% Inhibition” value is on record as -9% and the Z score is 1.01.
